# Assay results from PubChem BioAssay AID2546 (National Center for Advancing Translational Sciences (NCATS), 2010).
# Where “and” joins values, the source holds several entries; their conditions need not be identical. Equal values may be shown once. The campaign covered roughly 310,000 compounds. About 11,000 (3.5%) were called active. Inconclusive means that the source gave no clear call. Such entries were picked first, then a sample of the others. Calls come from the whole dose curve; as a rule, active = well fitted inhibition curve with a large enough effect; inconclusive = small, poorly fitted or top-dose-only effect, or effect the other way; inactive = flat fitted curve, though single readings scatter. No potency is given beside an inconclusive call; the fits are too rough.
# Assay: VP16 counterscreen qHTS for inhibitors of ROR gamma transcriptional activity;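 note: Gal4-VP16 expression switched on by copper sulfate through the metallothionein promoter; nearly all actives have a fitted effect of over 50% in size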
# Settings: Drosophila S2 Gal4-VP16 UAS-luciferase, luminescence, 20 h; series mostly up to 53.6 µM
# Potency is the fitted concentration of half-maximal effect; tags give direction and shape of the fitted curve.
row,SMILES,Potency
1,CC(C)c1ccc(/C=C/C(=O)Nc2ccc(CN3CCOCC3)cc2)cc1,"inconclusive [inhibitor, single point]"
2,COc1cc([N+](=O)[O-])cc(/C=N/NC(=O)c2cc(C)nc3ccccc23)c1O,active: 12.6 µM
3,N/C(=N\OC(=O)COc1ccc(Br)cc1Cl)c1ccccn1,"inconclusive [inhibitor, partial curve]"
4,Cc1cc(Cl)nc(-n2nc(C)cc2C)n1,active: 12.6 µM
5,COc1ccccc1NC(=O)CN1CCN(C2c3ccccc3-c3ccccc32)CC1,"inconclusive [inhibitor, single point]"
6,Cc1ccc(-c2cc(-c3ccc(F)cc3)nc(N)c2C#N)o1,inactive
7,CCSc1nnc2c(n1)[nH]c1c(C)cccc12,"inconclusive [inhibitor, single point]"
8,CC(C)c1nc(SCC(=O)c2ccc(F)cc2)c2ccccc2n1,"inconclusive [inhibitor, single point]"
9,CCOC(=O)C1=C(c2ccccc2)NC(=S)NC1c1ccc(Cl)cc1 (stereo not given),"inconclusive [inhibitor, single point]"
10,NNC(=O)c1ccc(-c2ccccc2F)cc1,"inconclusive [inhibitor, partial curve]"
11,Cn1c(CNC(=O)CNC(=O)c2ccc(C(C)(C)C)cc2)cc(=O)n(C)c1=O,inactive
12,CC1=C(C(=O)Nc2ccc(C)cc2C)C(c2cccc([N+](=O)[O-])c2)n2nc(C(=O)OC(C)C)nc2N1 (stereo not given),"inconclusive [inhibitor, single point]"
13,O=C(CSc1nnc(NC(=O)c2ccccc2Cl)s1)Nc1ccc2c(c1)oc1ccccc12,inactive
14,Nc1ccc(F)cc1F,inactive
15,O=C(c1ccc(S(=O)(=O)c2cccc(Cl)c2)c([N+](=O)[O-])c1)N1CCN(c2ccccn2)CC1,"inconclusive [inhibitor, single point]"
16,Cc1ccc(OCc2n[nH]c(=S)n2N)cc1C,inactive
17,CCOc1cc(-c2nccc3cc(OC)c(OC)cc23)cc(OCC)c1OCC,active: 4.47 µM and active: 5.62 µM
18,Cc1ccc2c(Br)cc(Br)c(O)c2n1,active: 0.708 µM
19,Cc1ccc(C)c(S(=O)(=O)Nc2cc(SCC(=O)O)c(O)c3ccccc23)c1,active: 14.1 µM
20,CCOC(=O)c1cc(-c2ccccc2)n(CC2CC(c3ccc(OC)cc3)=NO2)n1 (stereo not given),"inconclusive [inhibitor, single point]"
21,O=C(NCC1CCCO1)c1c(O)c2ccccc2[nH]c1=O (stereo not given),inactive
22,CC(/C=C/c1ccc(N(C)C)cc1)=N\N=C1\NC(=O)CC(C(=O)Nc2ccccc2)S1 (stereo not given),active: 3.55 µM
23,Cc1cccc(C)c1OCCCCc1c(C)n[nH]c1C,"inconclusive [inhibitor, single point]"
24,CCc1ccccc1NC(=S)NCCSc1ccc(Cl)cc1,active: 7.08 µM
25,Cc1cccc(-n2cc[nH]c2=S)c1,"inconclusive [inhibitor, single point]"

row,SMILES,Potency
1,CCCc1n[nH]c(=O)[nH]1,inactive
2,CCCCCCCCNC(=O)/C(C#N)=C/c1ccccc1[N+](=O)[O-],active: 7.94 µM
3,COc1ccccc1C(=O)N/N=C(\C)c1ccc(NC(=O)Cc2ccccc2)cc1,active: 7.94 µM
4,Cc1cc(C)nc(SCNC(=O)c2ccc(F)cc2)n1,"inconclusive [inhibitor, single point]"
5,COc1ccc(NS(=O)(=O)c2cccc(C(=O)N/N=C(\C)c3ccc(-n4ccnc4)cc3)c2)cc1,inactive
6,Cc1cc(/C=N/NC(=O)C(O)(c2ccccc2)c2ccccc2)c(C)n1-c1ccccc1,"inconclusive [inhibitor, single point]"
7,CC(=O)c1c(N)[nH]c(-c2ccccc2)nc1=S,active: 0.794 µM
8,CN(CC(=O)Nc1ccccc1Cl)C(=O)COC(=O)Cc1c(F)cccc1Cl,"inconclusive [inhibitor, partial curve]"
9,Cc1nc2ccccc2n1CC(=O)N/N=C\C=C\c1ccccc1,"inconclusive [inhibitor, partial curve]"
10,O=C(Nc1ccccc1Cl)Nc1cccc2cccnc12,"inconclusive [activator, full curve, poor fit]"
11,CCOC(=O)COc1ccc(S(=O)(=O)N2CCN(C(=O)OCC)CC2)cc1,inactive
12,Cn1c(=O)c2c(nc(N/N=C/c3cccs3)n2Cc2ccc(Br)cc2)n(C)c1=O,"inconclusive [inhibitor, single point]"
13,Cc1cccc(NC(=O)c2cc(S(=O)(=O)N3CCc4ccccc43)cn2C)c1C,"inconclusive [inhibitor, single point]"
14,S=C1NC(c2ccccc2)N2C(=S)NC(c3ccccc3)N12 (stereo not given),inactive
15,CCn1c(-c2cc3ccccc3cc2O)n[nH]c1=S,"inconclusive [inhibitor, single point]"
16,COc1ccc(C(=O)NC(=S)NCc2cccnc2)cc1Br,"inconclusive [inhibitor, single point]"
17,Cc1cc(NS(=O)(=O)c2ccc(NC(=O)CSc3nc4sc(C(=O)O)c(C)c4c(=O)[nH]3)cc2)no1,inactive
18,CCc1ccccc1NC(=S)NC1CC2CCCC(C1)N2Cc1cccs1 (stereo not given),"inconclusive [inhibitor, single point]"
19,O=C1CCCN1CCC1CCN(C2CC(=O)N(c3ccc(F)cc3)C2=O)CC1 (stereo not given),"inconclusive [inhibitor, single point]"
20,Cc1cccc(Oc2nc(-c3ccccn3)nc3ccccc23)c1,active: 2.24 µM
21,O=C1CCCc2c1nc(-c1ccc([N+](=O)[O-])cc1)n2O,inactive
22,Cc1cccc(C(=O)NNC(=O)c2cc3cc4ccccc4nc3s2)c1,"inconclusive [inhibitor, single point]"
23,C=CCSC1=N/C(=C\c2cc(OCC)c(OC(C)=O)c([N+](=O)[O-])c2)C(=O)S1,"inconclusive [inhibitor, single point]"
24,COCC1CCCCN1C(=O)c1cccc(OC2CCN(C(=O)C3CC3)CC2)c1 (stereo not given),"inconclusive [activator, full curve]"
25,O=C(O)CC1(CC(=O)NCc2cccc(Cl)c2)CCCCC1,inactive

row,SMILES,Potency
1,CN1C(=O)S/C(=C\c2ccc(-n3cncn3)cc2)C1=O,inactive
2,CCOC(=O)CCc1c(C)c(C#N)c2[nH]c3ccccc3n2c1=O,"inconclusive [inhibitor, single point]"
3,C=CCNC(=S)NS(=O)(=O)c1cccs1,inactive
4,CCN=C1Sc2nc3ccc(OCC)cc3cc2CN1CCOC,"inconclusive [inhibitor, full curve, poor fit]"
5,COc1cccc(-n2nc(C(=O)O)c3ccccc3c2=O)c1,inactive
6,O=C(Nc1ccc(Br)cc1)c1cnccn1,inactive
7,CCOC(=O)C(C)(C)N(Cc1ccc(Cl)cc1)S(=O)(=O)c1ccc(Cl)c([N+](=O)[O-])c1,"inconclusive [inhibitor, single point]"
8,CCC(=O)Oc1ccc(C(=O)Nc2ccc3c(c2)OCO3)cc1,"inconclusive [activator, full curve, poor fit]"
9,Cc1ccc(S(=O)(=O)Nc2ccc(Cl)cc2C(=O)c2ccccc2)cc1,"inconclusive [inhibitor, single point]"
10,CCOC(=O)c1c(-c2ccc(C)o2)csc1NC(=S)NC(=O)N(C)C,active: 2.24 µM
11,Cc1cc(C)n(-c2ccc(C(=O)Nc3ccccn3)cc2)n1,"inconclusive [inhibitor, single point]"
12,CC(=O)NC(c1cccs1)c1cc([N+](=O)[O-])c2cccnc2c1O (stereo not given),active: 15.8 µM
13,COc1ccc2c(c1OC)C(=O)N1C2SC[C@H]1C(=O)NC1CC1 (stereo not given in full),inactive
14,C/C(=N\Nc1ccccn1)c1cccs1,"inconclusive [inhibitor, single point]"
15,CC(C)C[C@H](NC(=O)NCc1ccc(Cl)cc1)C(=O)O,"inconclusive [inhibitor, single point]"
16,CCCn1c(CCC(=O)O)ccc1-c1cccs1,"inconclusive [inhibitor, single point]"
17,Cc1cccc2c1N1C(=O)c3c(C(=O)O)cccc3C1CC2C (stereo not given),"inconclusive [inhibitor, partial curve, poor fit]"
18,CSC(=S)N/N=C(\C)c1ccc(Br)cc1,inactive
19,Cc1sc2ncnc(SCC(=O)c3ccc4c(c3)OCCO4)c2c1-c1ccccc1,inactive
20,Fc1ccccc1CN1CCCN(C(=S)Nc2cccc(Cl)c2)C1,"inconclusive [inhibitor, single point]"
21,Cc1ccc(NS(=O)(=O)c2ccc(NC(=O)CN(c3cc([N+](=O)[O-])ccc3C)S(C)(=O)=O)cc2)c(C)c1,"inconclusive [inhibitor, single point]"
22,CC(=O)N1c2ccc(S(=O)(=O)NCCC(=O)Nc3ccc(C)c(Cl)c3)cc2CC1C (stereo not given),"inconclusive [inhibitor, single point]"
23,O=C(c1cc(-c2ccc(Cl)cc2Cl)on1)N1CCCC1,active: 10 µM
24,CCOC(=O)c1ccc(NC(=S)N2CCN(C)CC2)cc1,"inconclusive [activator, single point]"
25,O=C(Nc1ccc(Cl)cn1)c1cccc(S(=O)(=O)N2CCCC2)c1,"inconclusive [activator, single point]"
